Laboratory results reported in US12414955B2 (priority 2020, dated 2025).

tested on: SARS CoV-2; test: SARS CoV-2 cytopathic effect (CPE) assay in Vero E6 host cells; type: cell-based, USA_WA1/2020 SARS CoV-2; conditions: Vero C1008, 72 hours, 10-point dose response, high concentration 15 μM, read-out: IC50 for inhibition of SARS CoV-2 mediated cell killing

How did the IC50 turn out when `C[C@@H]1COCCN1c1cc(N2CCOC[C@H]2C(F)(F)F)[nH]c(=O)c1` [Compound 4] was run?
Its IC50 is 1400 nM.

For `C[C@@H]1COCCN1c1cc(N2CCCC[C@@H]2c2ccccc2)[nH]c(=O)c1` [Compound 2], which IC50 is on record?
Its IC50 is 4370 nM.

How did the IC50 turn out when `C[C@@H]1COCCN1c1cc(N2CCCC[C@@H]2C(F)(F)F)[nH]c(=O)c1` [Compound 1] was run?
The IC50 was 350 nM.

Which IC50 does the source give for `C[C@@H]1COCCN1c1cc(N2CCC[C@@H]2C(F)(F)F)[nH]c(=O)c1` [Compound 3] here?
Its IC50 is 2010 nM.

How did the IC50 turn out when `C[C@@H]1COCCN1c1cc(N2CCOCC23CCC3)[nH]c(=O)c1` [Compound 5] was run?
The IC50 was over 10000 nM.
